PubChem BioAssay AID686978 (National Center for Advancing Translational Sciences (NCATS), 2013)
The whole screen tested about 420,000 compounds, of which about 64,000 (15%) were called active. The inconclusive results got no clear call from the source; some entries with a clear call stand among them for comparison. Calls follow the shape of the dose curve; as a rule, active = well fitted inhibition curve with a large enough effect; inconclusive = small, poorly fitted or top-dose-only effect; inactive = flat fitted curve, though single readings scatter. Potencies of inconclusive entries are left out as doubtful fits.

Assay: qHTS for Inhibitors of human tyrosyl-DNA phosphodiesterase 1 (TDP1): qHTS in cells in absence of CPT; also: nearly all actives have a fitted effect of over 55% in size
Conditions: DT40 Tdp1-/- hTDP1 cells, no CPT, ATP luminescence, 48 h; activity change, negative = growth inhibition: at 46.2 µM (top of the series) unless noted
Method in brief: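 DT40 Tdp1-/-;hTDP1 cells, no CPT (DMSO vehicle only), 400 cells/well; compounds pin-transferred; ≥48 hr, 37 °C; CellTiter-Glo 30 min RT dark, luminescence read.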
% is scaled to controls: 0 for no effect and ±100 for the full control effect; potency is read from the fitted curve at half-maximal effect; tags tell the direction and shape of the fitted curve.

| SMILES | Potency | activity change, negative = growth inhibition |
| --- | --- | --- |
| CCC(Oc1ccccc1)C(=O)Nc1ccsc1C(=O)OC (stereo unspecified) | inconclusive [inhibitor, single point] | – |
| COc1c2ccoc2c(OCC=C(C)C)c2oc(=O)ccc12 | inconclusive [inhibitor, single point] | – |
| CCOC(=O)c1c(-c2ccc(OC)cc2)oc2c1C(OC(C)=O)CCC2 (stereo unspecified) | active: 20.6 µM | – |
| CC(C)SCCCCOc1ccc2ccccc2c1 | inconclusive [inhibitor, full curve] | – |
| COc1ccc(NC(=O)c2ccc(C#N)cc2)cc1NS(=O)(=O)c1ccc(F)cc1 | inactive | – |
| COc1ccc(OCCCCn2c(-c3ccc(Cl)cc3)nc3ccccc3c2=O)cc1 | inconclusive [inhibitor, single point] | – |
| CCOc1ccc([C@@H]2CC=C(C(=O)O)[C@H](c3cccc(Cl)c3)N2S(=O)(=O)c2ccc(C)cc2)cc1 | inconclusive [inhibitor, single point] | – |
| O=[N+]([O-])c1ccc(-c2nnc(CNC3CCCC3)o2)cc1 | inconclusive [inhibitor, single point] | – |
| C=CCOc1ccc(C2OC34CCCCC3C(C#N)(C#N)C2(C#N)C(=N)O4)cc1 (stereo unspecified) | active: 6.51 µM | – |
| NC(=O)c1cccc2ccccc12 | inactive | – |
| COc1ccc(NC2CCCN(C(=O)c3ccc4[nH]c(C)c(C)c4c3)C2)cc1 (stereo unspecified) | inactive | – |
| Cn1c(=O)c2c(-c3ccccc3Cl)n(-c3cc(Cl)ccc3O)cc2n(C)c1=O | inconclusive [inhibitor, single point] | – |
| CC1(C)C=Cc2c(ccc3c2OC[C@H](c2ccc(O)cc2O)C3)O1 | inconclusive [inhibitor, single point] | – |
| COc1ccc(S(=O)(=O)N2CCCCCC2)cc1C(=O)N(C)CC(=O)Nc1ccccc1Br | active: 9.2 µM | – |
| O=S(=O)(c1ccc(Cl)c(C(F)(F)F)c1)N1CCN(CC(O)COCC2CCCO2)CC1 (stereo unspecified) | active: 18.4 µM | – |
| C/C(=N/O)c1cc(C(C)(C)C)c(O)c(C(C)(C)C)c1 | – | inconclusive: -31.2% [inhibitor] |
| COC(=O)c1ccc(CSc2ncnc3c2sc2nc(N4CCOCC4)c4c(c23)CCCC4)o1 | active: 18.4 µM | – |
| COc1ccc(C(c2nnnn2Cc2cccs2)N2CCN(c3ccc(F)cc3)CC2)cc1OC (stereo unspecified) | inconclusive [inhibitor, single point] | – |
| Cc1ccc(Cl)cc1N1CCN(C(=O)COc2ccc(S(=O)(=O)NC(C)C)cc2)CC1 | active: 18.4 µM | – |
| Cc1cccc(NC(=O)CSc2nc(-c3ccccc3)cn2-c2ccccc2)c1C | active: 23.1 µM | – |
| Nc1cc(=O)[nH]c(SCC(=O)Nc2cccc(S(=O)(=O)N3CCCCCC3)c2)n1 | inactive | – |
| COC(=O)c1ccccc1NC(=O)COC(C)=O | inconclusive [inhibitor, single point] | – |
| CCOC(=O)C(CC1=CS(=O)(=O)c2ccc(Cl)cc21)(NC(C)=O)C(=O)OCC | inactive | – |
| CC(C)C[C@@]12C(=O)N(c3cccc(F)c3)C(=O)N1[C@H](c1ccc(Br)cc1)[C@@H]1C(=O)N(C(C)(C)C)C(=O)[C@@H]12 | active: 20.6 µM | – |
| Cc1ccc(C)c(-n2c(CCC(=O)O)ccc2-c2ccc(Cl)cc2)c1 | inconclusive [inhibitor, single point] | – |
| CN(Cc1cnc2ccccn12)C(=O)c1cc(NC(=O)c2ccccc2)cc2ncn(C3CCCC3)c12 | inconclusive [inhibitor, partial curve, poor fit] | – |

| SMILES | Potency | activity change, negative = growth inhibition |
| --- | --- | --- |
| COc1ccc(C(=O)NC(=S)NNC(=O)c2ccc3ccccc3n2)cc1 | active: 18.4 µM | – |
| COc1ccc(Nc2ncc(C(=O)N3CCN(c4cccc(Cl)c4)CC3)c3ccccc23)cc1 | active: 4.61 µM | – |
| Cc1ccc(C(C)C)c(OCC(=O)Nc2ccc(C(=O)OC3CCCCC3)cc2)c1 | inconclusive [inhibitor, single point] | – |
| COc1cc(/C=N/NC(=O)COc2c(C)cc([N+](=O)[O-])cc2C)ccc1OC(=O)c1ccccc1 | active: 20.6 µM | – |
| CCOc1ccc(-c2nc(SCC(=O)Nc3ccc(C)c(C)c3)n3[nH]c(=O)cc3n2)cc1 | inactive | – |
| COc1ccccc1NC(=O)CCCN1C(=O)C2CC=CCC2C1=O (stereo unspecified) | inactive | – |
| CC(C)CC(C(=O)NCc1ccc(F)cc1)N1Cc2ccccc2C1=O (stereo unspecified) | inconclusive [inhibitor, single point] | – |
| CCOc1ccc(NS(=O)(=O)c2cc3c(cc2C)N(C)CCO3)cc1 | active: 20.6 µM | – |
| COc1ccc(CNC(=O)c2c(O)nc3cc(C)ccn3c2=O)cc1 | inactive | – |
| Cc1nc(C)c(-c2ccc(SCC(=O)Nc3ccc(C)c(F)c3)nn2)s1 | inactive | – |
| Cc1ccc(CN(Cc2cccnc2)C(=S)Nc2cccc(Cl)c2C)cc1 | inconclusive [inhibitor, single point] | – |
| O=C(C[n+]1c(Cl)ccc2ccccc21)c1ccc2ccccc2c1 | inactive | – |
| Cc1nc(-c2cccnc2)sc1C(=O)Nc1ccc(C(F)(F)F)cc1 | inconclusive [inhibitor, single point] | – |
| COC(=O)[C@@H]1CCCN1Cc1ccc2c(c1)CN(Cc1cc(OC)c3c(c1)OCO3)CCO2 | inconclusive [inhibitor, single point] | – |
| O=C(/C=C/c1ccco1)NCc1ccccn1 | inconclusive [inhibitor, single point] | – |
| CCc1ccc2ncc3c(-c4ccc(F)cc4)nn(CC(=O)NCc4ccccc4)c3c2c1 | inactive | – |
| O=C(c1ccco1)N1CCN(C(=O)c2ccccc2OCc2ccc(Cl)cc2)CC1 | inconclusive [inhibitor, single point] | – |
| CC1=C(C)[N+](=O)C2(O)CCCCC2(C)N1[O-] (stereo unspecified) | inactive | – |
| Cn1c(NCCCN2CCOCC2)nc2c1c(=O)n(Cc1ccc(Cl)cc1Cl)c(=O)n2C | inconclusive [inhibitor, single point] | – |
| Cc1nc(C)c(-c2csc(Nc3cccc(O)c3)n2)s1 | active: 23.1 µM | – |
| Cc1ccc(/C=C/c2onc(C)c2S(=O)(=O)N2CCC(C(=O)NCc3ccc(C)o3)CC2)cc1 | inconclusive [inhibitor, single point] | – |
| COc1ccc(CNC(=O)Cc2ccc(NC(=O)C3=C(C)OCCS3)cc2)cc1 | active: 2.06 µM | – |
| CC(=O)Nc1cc(NC(C)=O)ncn1 | inactive | – |
| CCOC(=O)C1=C(C)N=c2s/c(=C\c3cccn3C)c(=O)n2C1c1cccc(OC)c1OC (stereo unspecified) | active: 20.6 µM | – |
| CC(C)[C@@H]1NC(=O)c2cc([N+](=O)[O-])cc(I)c2NCCC[C@@H](C(=O)NC(CC(=O)O)C(N)=O)NC(=O)[C@H](CO)NC1=O (stereo partly specified) | inactive | – |
| CCc1nnc(SCc2nc(-c3ccc(OC)c(OC)c3)oc2C)c2cc3sc(C)cc3n12 | inconclusive [inhibitor, single point] | – |

| SMILES | Potency | activity change, negative = growth inhibition |
| --- | --- | --- |
| O=C(c1ccccc1)n1ccc2ccccc21 | inactive | – |
| COc1cc(SC)ccc1C(=O)NCCOc1ccccc1Cl | inactive | – |
| Cc1cccc(NC(=S)NC2CC3CCCC(C2)N3Cc2ccco2)c1 (stereo unspecified) | inactive | – |
| COc1cccc(C(=O)NC(=S)Nc2ccc(N3CCCC3)cc2)c1 | active: 16.4 µM | – |
| COCC(C)n1c(C)cc(C(=O)COC(=O)/C=C/c2cccc(F)c2)c1C (stereo unspecified) | inconclusive [inhibitor, single point] | – |
| COc1cc(/C=C/C(=O)N2CCOCC2)ccc1OCc1ccccc1 | inconclusive [inhibitor, single point] | – |
| CN1C(=O)N(CC(=O)c2ccc3c(c2)OCO3)C(=O)C12CCCCC2 | inactive | – |
| CCn1cc(CNC(=O)C2CCC(=O)N(C3CCCCCC3)C2)cn1 (stereo unspecified) | inactive | – |
| Cc1cccc(-c2noc(CCC(=O)N3CCN(c4cc(C)ccc4C)CC3)n2)c1 | inactive | – |
| Cc1ccc(C(=O)N/N=C/C2=Cc3ccccc3OC2C)cc1 (stereo unspecified) | active: 14.6 µM | – |
| COc1cccc(CNC(=O)Cc2ccc(NC(=O)N3CCCCc4ccccc43)cc2)c1OC | active: 18.4 µM | – |
| O=[N+]([O-])c1ccc(C(O)CSC(=S)N2CCCCC2)cc1 (stereo unspecified) | inconclusive [inhibitor, partial curve] | – |
| O=C(Nc1ccc(N2CCOCC2)cc1)c1ccncc1 | inactive | – |
| CCOC(=O)N1CCN(C(=O)COc2ccc(S(=O)(=O)Nc3ccc(OCC)cc3)cc2)CC1 | active: 23.1 µM | – |
| Cc1ccc(-c2cn3cccc(C)c3n2)cc1 | inconclusive [inhibitor, partial curve, poor fit] | – |
| O=C(N/N=C/c1cc(Br)c(Br)o1)c1cc2ccccc2o1 | inconclusive [inhibitor, single point] | – |
| CSc1nc(Cl)c(C#N)c(-c2ccc(C)cc2)n1 | inconclusive [inhibitor, single point] | – |
| Cc1ccccc1C(=O)NCc1nc2cccnc2n1Cc1ccccc1 | inconclusive [inhibitor, single point] | – |
| COc1ccc(S(=O)(=O)N2CCN(C)CC2)cc1NC(=O)c1ccccc1C | inactive | – |
| COc1ccc(Br)c(C(=O)N(C)CC(=O)Nc2ccc(N3CCOCC3)cc2)c1 | inactive | – |
| O=c1cc(/C=C/c2ccccc2)oc2c1ccc1ccccc12 | inconclusive [inhibitor, single point] | – |
| CC(C(=O)Nc1cc(C(F)(F)F)ccc1Cl)n1nnc2sc3c(c2c1=O)CCCC3 (stereo unspecified) | active: 16.4 µM | – |
| O=C(NCc1ccccc1Cl)C1CCN(S(=O)(=O)N2CCOCC2)CC1 | inactive | – |
| Cc1ccc(S(=O)(=O)N2CCOCC2)cc1C(=O)Nc1cc(Cl)ccc1N1CCOCC1 | inconclusive [inhibitor, single point] | – |
